Data from the supplement of paper PMC4967469.
Lines with a small IC50 respond at low doses; a fit beyond the top or the lowest dose is shown as a bound at that dose. AUC, from the same fit, is the share of area under the viability curve across the 256-fold dose range; the more sensitive the line, the further below 1. For some assays here: A top dose marked as inferred comes from the curve model; the source does not state it. For some assays here: Drugs with an entry number were screened twice under separate entries, and the two screens often disagree.

Legend:
Test in all cases: Viability of human cancer cell lines after 72 h of drug (GDSC screen)
LFM-A13 = compound: C/C(O)=C(\C#N)C(=O)Nc1cc(Br)ccc1Br [LFM-A13]; conditions: top dose 16 µM; top dose inferred
Protocol: (§1)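 Human cancer cell lines in 384-well plates, medium with 10% serum, drug for 72 h over a 256-fold dose range (nine 2-fold or five 4-fold steps up to the top dose). Adherent lines were fixed and stained with the nucleic acid dye Syto60, suspension lines read with resazurin; signal relative to control wells, capped at 0 and 100%. One two-parameter sigmoid per drug and line, fitted in a mixed model over all curves with the slope shared within a line.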

TW-37 = compound: CC(C)c1ccccc1Cc1cc(C(=O)Nc2ccc(S(=O)(=O)c3ccccc3C(C)(C)C)cc2)c(O)c(O)c1O [TW-37]; conditions: top dose 5 µM
Protocol: as §1

Bicalutamide = compound: CC(O)(CS(=O)(=O)c1ccc(F)cc1)C(=O)Nc1ccc(C#N)c(C(F)(F)F)c1 [Bicalutamide]; conditions: top dose inferred
Protocol: as §1

KIN001-270 = compound: Cc1ccc(Nc2cc(-c3cccc(N4C(=O)c5ccccc5C4=O)c3)ncn2)cc1NS(C)(=O)=O [KIN001-270]; conditions: top dose 20 µM; top dose inferred
Protocol: as §1

Nilotinib = compound: Cc1cn(-c2cc(NC(=O)c3ccc(C)c(Nc4nccc(-c5cccnc5)n4)c3)cc(C(F)(F)F)c2)cn1 [Nilotinib]; conditions: top dose 2 µM
Protocol: as §1

Gemcitabine = compound: Nc1ccn([C@@H]2O[C@H](CO)[C@@H](O)C2(F)F)c(=O)n1 [Gemcitabine]; conditions: top dose 1.024 µM
Protocol: as §1

T0901317 = compound: O=S(=O)(c1ccccc1)N(CC(F)(F)F)c1ccc(C(O)(C(F)(F)F)C(F)(F)F)cc1 [T0901317]; conditions: top dose 10.24 µM; top dose inferred
Protocol: as §1

MP470 = compound: S=C(NCc1ccc2c(c1)OCO2)N1CCN(c2ncnc3c2oc2ccccc23)CC1 [MP470]; conditions: top dose 20 µM; top dose inferred
Protocol: as §1

AUY922 = compound: CCNC(=O)c1noc(-c2cc(C(C)C)c(O)cc2O)c1-c1ccc(CN2CCOCC2)cc1 [AUY922]; conditions: top dose 0.256 µM; top dose inferred
Protocol: as §1

[1] = top dose 1.024 µM, screen: GDSC drug entry 150
[2] = top dose 10 µM, screen: GDSC drug entry 1502

## DOK (head and neck, adherent)
LFM-A13
  AUC: 0.971
  IC50: > 16 µM
TW-37
  AUC: 0.675
  IC50: 1.24 µM
Bicalutamide; [1]
  AUC: 0.974
  IC50: > 1.02 µM
KIN001-270
  AUC: 0.968
  IC50: > 20 µM
Nilotinib
  AUC: 0.946
  IC50: > 2 µM
Gemcitabine
  AUC: 0.976
  IC50: > 1.02 µM
T0901317
  AUC: 0.973
  IC50: > 10.2 µM
MP470
  AUC: 0.974
  IC50: > 20 µM

## DU-145 (prostate, adherent)
LFM-A13
  AUC: 0.971
  IC50: > 16 µM
TW-37
  AUC: 0.439
  IC50: 0.209 µM
KIN001-270
  AUC: 0.952
  IC50: > 20 µM
Nilotinib
  AUC: 0.966
  IC50: > 2 µM
Gemcitabine
  AUC: 0.15
  IC50: 0.00447 µM
T0901317
  AUC: 0.982
  IC50: > 10.2 µM
MP470
  AUC: 0.957
  IC50: > 20 µM

## DoTc2-4510 (cervix, adherent)
LFM-A13
  AUC: 0.957
  IC50: > 16 µM
TW-37
  AUC: 0.715
  IC50: 1.22 µM
Bicalutamide; [1]
  AUC: 0.988
  IC50: > 1.02 µM
KIN001-270
  AUC: 0.973
  IC50: > 20 µM
Nilotinib
  AUC: 0.975
  IC50: > 2 µM
Gemcitabine
  AUC: 0.13
  IC50: 0.00473 µM
T0901317
  AUC: 0.986
  IC50: > 10.2 µM
MP470
  AUC: 0.948
  IC50: > 20 µM

## EFM-19 (breast, adherent)
LFM-A13
  AUC: 0.933
  IC50: > 16 µM
TW-37
  AUC: 0.715
  IC50: 1.77 µM
Bicalutamide; [1]
  AUC: 0.975
  IC50: > 1.02 µM
Bicalutamide; [2]
  AUC: 0.954
  IC50: > 10 µM
KIN001-270
  AUC: 0.968
  IC50: > 20 µM
Nilotinib
  AUC: 0.975
  IC50: > 2 µM
Gemcitabine
  AUC: 0.961
  IC50: > 1.02 µM
T0901317
  AUC: 0.978
  IC50: > 10.2 µM
MP470
  AUC: 0.977
  IC50: > 20 µM

## G-401 (kidney, adherent)
LFM-A13
  AUC: 0.912
  IC50: > 16 µM
TW-37
  AUC: 0.567
  IC50: 0.486 µM
Bicalutamide; [1]
  AUC: 0.981
  IC50: > 1.02 µM
Bicalutamide; [2]
  AUC: 0.956
  IC50: > 10 µM
KIN001-270
  AUC: 0.93
  IC50: > 20 µM
Nilotinib
  AUC: 0.975
  IC50: > 2 µM
Gemcitabine
  AUC: 0.531
  IC50: 0.0786 µM
T0901317
  AUC: 0.969
  IC50: > 10.2 µM
MP470
  AUC: 0.847
  IC50: 16.9 µM

## H513 (mesothelioma, semi-adherent)
LFM-A13
  AUC: 0.971
  IC50: > 16 µM
TW-37
  AUC: 0.764
  IC50: 2.19 µM
Bicalutamide; [1]
  AUC: 0.985
  IC50: > 1.02 µM
Bicalutamide; [2]
  AUC: 0.984
  IC50: > 10 µM
KIN001-270
  AUC: 0.986
  IC50: > 20 µM
Nilotinib
  AUC: 0.986
  IC50: > 2 µM
Gemcitabine
  AUC: 0.984
  IC50: > 1.02 µM
T0901317
  AUC: 0.986
  IC50: > 10.2 µM
MP470
  AUC: 0.963
  IC50: > 20 µM

## ME-180 (cervix, adherent)
LFM-A13
  AUC: 0.984
  IC50: > 16 µM
TW-37
  AUC: 0.346
  IC50: 0.114 µM
Bicalutamide; [1]
  AUC: 0.983
  IC50: > 1.02 µM
Bicalutamide; [2]
  AUC: 0.977
  IC50: > 10 µM
AUY922
  AUC: 0.728
  IC50: 0.0738 µM
KIN001-270
  AUC: 0.98
  IC50: > 20 µM
Nilotinib
  AUC: 0.975
  IC50: > 2 µM
T0901317
  AUC: 0.934
  IC50: > 10.2 µM
MP470
  AUC: 0.897
  IC50: > 20 µM

## MIA-PaCa-2 (pancreas, adherent)
LFM-A13
  AUC: 0.973
  IC50: > 16 µM
TW-37
  AUC: 0.586
  IC50: 0.552 µM
Bicalutamide; [1]
  AUC: 0.985
  IC50: > 1.02 µM
Bicalutamide; [2]
  AUC: 0.983
  IC50: > 10 µM
AUY922
  AUC: 0.479
  IC50: 0.014 µM
KIN001-270
  AUC: 0.972
  IC50: > 20 µM
Nilotinib
  AUC: 0.917
  IC50: > 2 µM
T0901317
  AUC: 0.972
  IC50: > 10.2 µM
MP470
  AUC: 0.935
  IC50: > 20 µM

## NCI-H441 (lung adenocarcinoma, adherent)
LFM-A13
  AUC: 0.941
  IC50: > 16 µM
TW-37
  AUC: 0.728
  IC50: 1.85 µM
Bicalutamide; [1]
  AUC: 0.977
  IC50: > 1.02 µM
AUY922
  AUC: 0.717
  IC50: 0.0858 µM
KIN001-270
  AUC: 0.973
  IC50: > 20 µM
Nilotinib
  AUC: 0.981
  IC50: > 2 µM
T0901317
  AUC: 0.965
  IC50: > 10.2 µM
MP470
  AUC: 0.764
  IC50: 10.3 µM

## NCI-H841 (small cell lung carcinoma, adherent)
LFM-A13
  AUC: 0.981
  IC50: > 16 µM
TW-37
  AUC: 0.372
  IC50: 0.138 µM
Bicalutamide; [1]
  AUC: 0.988
  IC50: > 1.02 µM
Bicalutamide; [2]
  AUC: 0.976
  IC50: > 10 µM
KIN001-270
  AUC: 0.979
  IC50: > 20 µM
Nilotinib
  AUC: 0.986
  IC50: > 2 µM
Gemcitabine
  AUC: 0.956
  IC50: > 1.02 µM
T0901317
  AUC: 0.973
  IC50: > 10.2 µM
MP470
  AUC: 0.81
  IC50: 10.6 µM

## PA-TU-8988T (pancreas, adherent)
LFM-A13
  AUC: 0.964
  IC50: > 16 µM
TW-37
  AUC: 0.496
  IC50: 0.304 µM
Bicalutamide; [1]
  AUC: 0.986
  IC50: > 1.02 µM
Bicalutamide; [2]
  AUC: 0.952
  IC50: > 10 µM
AUY922
  AUC: 0.54
  IC50: 0.0206 µM
KIN001-270
  AUC: 0.979
  IC50: > 20 µM
Nilotinib
  AUC: 0.959
  IC50: > 2 µM
T0901317
  AUC: 0.95
  IC50: > 10.2 µM
MP470
  AUC: 0.937
  IC50: > 20 µM

## SNU-387 (liver, adherent)
LFM-A13
  AUC: 0.963
  IC50: > 16 µM
TW-37
  AUC: 0.47
  IC50: 0.255 µM
Bicalutamide; [1]
  AUC: 0.982
  IC50: > 1.02 µM
AUY922
  AUC: 0.752
  IC50: 0.0958 µM
KIN001-270
  AUC: 0.931
  IC50: > 20 µM
Nilotinib
  AUC: 0.983
  IC50: > 2 µM
T0901317
  AUC: 0.962
  IC50: > 10.2 µM
MP470
  AUC: 0.961
  IC50: > 20 µM

## SW13 (adrenal gland, adherent)
LFM-A13
  AUC: 0.851
  IC50: 12.5 µM
TW-37
  AUC: 0.364
  IC50: 0.131 µM
Bicalutamide; [1]
  AUC: 0.986
  IC50: > 1.02 µM
Bicalutamide; [2]
  AUC: 0.964
  IC50: > 10 µM
AUY922
  AUC: 0.606
  IC50: 0.0314 µM
KIN001-270
  AUC: 0.987
  IC50: > 20 µM
Nilotinib
  AUC: 0.962
  IC50: > 2 µM
T0901317
  AUC: 0.984
  IC50: > 10.2 µM
MP470
  AUC: 0.922
  IC50: > 20 µM

## SW1990 (pancreas, adherent)
LFM-A13
  AUC: 0.947
  IC50: > 16 µM
TW-37
  AUC: 0.733
  IC50: 1.64 µM
Bicalutamide; [1]
  AUC: 0.98
  IC50: > 1.02 µM
Bicalutamide; [2]
  AUC: 0.962
  IC50: > 10 µM
AUY922
  AUC: 0.54
  IC50: 0.021 µM
KIN001-270
  AUC: 0.973
  IC50: > 20 µM
Nilotinib
  AUC: 0.961
  IC50: > 2 µM
T0901317
  AUC: 0.973
  IC50: > 10.2 µM
MP470
  AUC: 0.921
  IC50: > 20 µM

## UM-UC-3 (bladder, adherent)
LFM-A13
  AUC: 0.957
  IC50: > 16 µM
TW-37
  AUC: 0.395
Bicalutamide; [1]
  AUC: 0.988
  IC50: > 1.02 µM
Bicalutamide; [2]
  AUC: 0.957
  IC50: > 10 µM
AUY922
  AUC: 0.561
  IC50: 0.0233 µM
KIN001-270
  AUC: 0.898
  IC50: > 20 µM
Nilotinib
  AUC: 0.977
  IC50: > 2 µM
T0901317
  AUC: 0.947
  IC50: > 10.2 µM
MP470
  AUC: 0.931
  IC50: > 20 µM
